According to PubChem BioAssay AID2060363 (Molecular Pharmacology Branch, DTP, NCI, 2025):
The source holds more than one record for some entries. They are shown here; other results are not. The source may hold further records. The values listed for one entry repeat one measurement across runs, samples, wells, individuals or studies.

Tested on: 156681-154-R-J1-PDC tumor spheroids, viability % test/control
Experiment: Anticancer human tumor 156681-154-R-J1-PDC patient-derived melanoma cell line growth inhibition [TAK]
Details: compound alone; spheroids with HUVEC and MSC
Excerpt: Combinatorial screen of targeted agents with TAK-243 and ipatasertib in multi-cell type tumor spheroids
A high-throughput screen of multi-cell type tumor spheroids was designed to identify active combinations of targeted small molecules and TAK-243 or ipatasertib. Complex spheroids include a stromal component modeled by human endothelial cells (HUVEC) and fibroblasts modeled by human mesenchymal stem cells (MSCs). The concentration ranges selected for each drug and investigational agent were based upon clinically achievable concentrations if the clinical Cmax of the agent was known.
Compounds. […] If the clinical Cmax for an agent had not been determined, the highest concentration tested was 10 microM.
NCI60 Cell Culture. […] The optimal seeding densities for each of the cell lines at each time point assessed were determined prior to performing the concentration response studies. […]
For the pre-screen, cell seeding densities were determined from a titration spanning the range from 5,000 to 313 cells per well. […]
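Further: spheroids exposed to compounds for 7 days before the endpoint.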

- IC50: > 100 µM and 9.07 µM
SMILES: CCCS(=O)(=O)Nc1ccc(F)c(C(=O)c2c[nH]c3ncc(-c4ccc(Cl)cc4)cc23)c1F
